{"source": "paper PMC9911399", "about": "“Two distinct binding modes provide the RNA-binding protein RbFox with extraordinary sequence specificity”", "binders": {"B1": {"name": "AAUAGCU (DNA:RNA)", "RNA": "GGGAGACCGGAAUUCAGAUUGUCCAAUAGCUUUAAAUCCCGUCGUAGCCACCA", "DNA 1": "CAATCTGAATTCCGGTCTCCC", "DNA 2": "TGGTGGCTACGACGGGATT"}, "B2": {"name": "UUGAUAA (DNA:RNA)", "RNA": "B1 RNA with A25U, A26U, U27G, G29U, C30A, U31A", "DNA 1": "CAATCTGAATTCCGGTCTCCC", "DNA 2": "TGGTGGCTACGACGGGATT"}, "B3": {"name": "GAGAGUU (DNA:RNA)", "RNA": "B1 RNA with A25G, U27G, C30U", "DNA 1": "CAATCTGAATTCCGGTCTCCC", "DNA 2": "TGGTGGCTACGACGGGATT"}, "B4": {"name": "UUAGUAG (DNA:RNA)", "RNA": "GGGAGACCGGAAUUCAGAUUGUCCUUAGUAGUUAAAUCCCGUCGUAGCCACCA", "DNA 1": "CAATCTGAATTCCGGTCTCCC", "DNA 2": "TGGTGGCTACGACGGGATT"}, "B5": {"name": "AAGCCCA (DNA:RNA)", "RNA": "B1 RNA with U27G, A28C, G29C, U31A", "DNA 1": "CAATCTGAATTCCGGTCTCCC", "DNA 2": "TGGTGGCTACGACGGGATT"}, "B6": {"name": "GCGGUGU (DNA:RNA)", "RNA": "B4 RNA with U25G, U26C, A27G, A30G, G31U", "DNA 1": "CAATCTGAATTCCGGTCTCCC", "DNA 2": "TGGTGGCTACGACGGGATT"}, "B7": {"name": "GUCGCUU (DNA:RNA)", "RNA": "B4 RNA with U25G, A27C, U29C, A30U, G31U", "DNA 1": "CAATCTGAATTCCGGTCTCCC", "DNA 2": "TGGTGGCTACGACGGGATT"}, "B8": {"name": "UGCGUUC (DNA:RNA)", "RNA": "B4 RNA with U26G, A27C, A30U, G31C", "DNA 1": "CAATCTGAATTCCGGTCTCCC", "DNA 2": "TGGTGGCTACGACGGGATT"}, "B9": {"name": "CUCCAAC (DNA:RNA)", "RNA": "B4 RNA with U25C, A27C, G28C, U29A, G31C", "DNA 1": "CAATCTGAATTCCGGTCTCCC", "DNA 2": "TGGTGGCTACGACGGGATT"}, "B10": {"name": "UCCCCAA (DNA:RNA)", "RNA": "B4 RNA with U26C, A27C, G28C, U29C, G31A", "DNA 1": "CAATCTGAATTCCGGTCTCCC", "DNA 2": "TGGTGGCTACGACGGGATT"}, "B11": {"name": "UGGCAUC (DNA:RNA)", "RNA": "B4 RNA with U26G, A27G, G28C, U29A, A30U, G31C", "DNA 1": "CAATCTGAATTCCGGTCTCCC", "DNA 2": "TGGTGGCTACGACGGGATT"}, "B12": {"name": "CCUUAUC (DNA:RNA)", "RNA": "B1 RNA with A25C, A26C, A28U, G29A, C30U, U31C", "DNA 1": "CAATCTGAATTCCGGTCTCCC", "DNA 2": "TGGTGGCTACGACGGGATT"}, "B13": {"name": "UACCACU (DNA:RNA)", "RNA": "B1 RNA with A25U, U27C, A28C, G29A", "DNA 1": "CAATCTGAATTCCGGTCTCCC", "DNA 2": "TGGTGGCTACGACGGGATT"}, "B14": {"name": "GCCCUUG (DNA:RNA)", "RNA": "B4 RNA with U25G, U26C, A27C, G28C, A30U", "DNA 1": "CAATCTGAATTCCGGTCTCCC", "DNA 2": "TGGTGGCTACGACGGGATT"}, "B15": {"name": "UAGGUAG (DNA:RNA)", "RNA": "B4 RNA with U26A, A27G", "DNA 1": "CAATCTGAATTCCGGTCTCCC", "DNA 2": "TGGTGGCTACGACGGGATT"}, "B16": {"name": "AGUAAAG (DNA:RNA)", "RNA": "B1 RNA with A26G, G29A, C30A, U31G", "DNA 1": "CAATCTGAATTCCGGTCTCCC", "DNA 2": "TGGTGGCTACGACGGGATT"}, "B17": {"name": "GUCCUAG (DNA:RNA)", "RNA": "B4 RNA with U25G, A27C, G28C", "DNA 1": "CAATCTGAATTCCGGTCTCCC", "DNA 2": "TGGTGGCTACGACGGGATT"}, "B18": {"name": "GGGGCUG (DNA:RNA)", "RNA": "B4 RNA with U25G, U26G, A27G, U29C, A30U", "DNA 1": "CAATCTGAATTCCGGTCTCCC", "DNA 2": "TGGTGGCTACGACGGGATT"}, "B19": {"name": "AGAAUCU (DNA:RNA)", "RNA": "B1 RNA with A26G, U27A, G29U", "DNA 1": "CAATCTGAATTCCGGTCTCCC", "DNA 2": "TGGTGGCTACGACGGGATT"}, "B20": {"name": "GGCGAUC (DNA:RNA)", "RNA": "B4 RNA with U25G, U26G, A27C, U29A, A30U, G31C", "DNA 1": "CAATCTGAATTCCGGTCTCCC", "DNA 2": "TGGTGGCTACGACGGGATT"}}, "note": "Substitutions are numbered along the chain they refer to; changes in the protein carry UniProt numbers. The list shows a part of the results."}
{"target": "T1, RBFOX1 RRM RbFoxmut (Fox-RRM*) (Homo sapiens, UniProt Q9NWB1 109-208, R118D;E147R;N151S;E152T)", "T1 sequence": "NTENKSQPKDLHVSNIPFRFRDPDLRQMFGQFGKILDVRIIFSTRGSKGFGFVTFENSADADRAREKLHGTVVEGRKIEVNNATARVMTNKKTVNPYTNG", "test": "EMSA; HiTS-Eq, 1 nM pool, 10 min; buffer printed only for the single-RNA assays: 10 mM Tris pH 7.5, 150 mM NaCl, 3.4 mM EDTA, 0.001% NP-40, 30 C", "conditions": "tags: His6 N-terminal (pET28a); label: 5' 32P", "in_short": "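Purified RbFox RRM, wild type or mutant, was incubated for 10 min in 50 µL with 1 nM of a 5′-radiolabelled RNA pool carrying 7 randomized nucleotides, whose flanks were annealed to DNA oligonucleotides, over a series of increasing protein concentrations. Unbound RNA was resolved on 8% native PAGE, cut out, reverse-transcribed, barcoded by PCR and sequenced on an Illumina HiSeq 2500. Relative association constants were derived from changes in read counts for each RNA species versus the control reaction and normalised to the cognate motif.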"}
{"binder": "B1", "binding signal": "0.0964 KA relative to UGCAUGU"}
{"binder": "B2", "binding signal": "0.0953 KA relative to UGCAUGU"}
{"binder": "B3", "binding signal": "0.0961 KA relative to UGCAUGU"}
{"binder": "B4", "binding signal": "0.147 KA relative to UGCAUGU"}
{"binder": "B5", "binding signal": "0.0733 KA relative to UGCAUGU"}
{"binder": "B6", "binding signal": "0.154 KA relative to UGCAUGU"}
{"binder": "B7", "binding signal": "0.0749 KA relative to UGCAUGU"}
{"binder": "B8", "binding signal": "0.095 KA relative to UGCAUGU"}
{"binder": "B9", "binding signal": "0.0576 KA relative to UGCAUGU"}
{"binder": "B10", "binding signal": "0.0943 KA relative to UGCAUGU"}
{"binder": "B11", "binding signal": "0.411 KA relative to UGCAUGU"}
{"binder": "B12", "binding signal": "0.0522 KA relative to UGCAUGU"}
{"binder": "B13", "binding signal": "0.065 KA relative to UGCAUGU"}
{"binder": "B14", "binding signal": "0.0914 KA relative to UGCAUGU"}
{"binder": "B15", "binding signal": "0.124 KA relative to UGCAUGU"}
{"binder": "B16", "binding signal": "0.107 KA relative to UGCAUGU"}
{"binder": "B17", "binding signal": "0.119 KA relative to UGCAUGU"}
{"binder": "B18", "binding signal": "0.339 KA relative to UGCAUGU"}
{"binder": "B19", "binding signal": "0.175 KA relative to UGCAUGU"}
{"binder": "B20", "binding signal": "0.233 KA relative to UGCAUGU"}
